The campaign covered roughly 350,000 compounds. About 9,900 (2.8%) were called active. This list was built around the results that the source calls inconclusive (neither active nor inactive); the mix of calls is not that of the screen. Calls follow the shape of the dose curve; as a rule, active = well fitted activation curve with a large enough effect; inconclusive = small, poorly fitted or top-dose-only effect; inactive = no such curve, though single readings can be large or run the other way. Potencies of inconclusive entries are left out as doubtful fits.
Experiment: A quantitative high throughput screen for small molecules that induce DNA re-replication in MCF 10a normal breast cells. Also: nearly all actives have a fitted effect of over 50% in size.
Settings: MCF 10A DNA re-replication, Hoechst nuclear intensity, 48 h; series mostly up to 46.1 µM
Potency is read from the fitted curve at half-maximal effect; tags tell the direction and shape of the fitted curve.

| SMILES | Potency |
| --- | --- |
| CCCCOCCCNC(=O)c1c(-c2ccccc2)noc1C | inconclusive [activator, partial curve, poor fit] |
| COc1ccc(OC)c(C2CC(c3ccccc3)=NN2C(=S)Nc2ccccc2)c1 (centres undefined) | active: 4.11 µM |
| NC(=O)c1ccc(NC(=O)COC(=O)c2c3c(nc4ccccc24)/C(=C\c2ccc4c(c2)OCO4)CCC3)cc1 | inconclusive [activator, full curve, poor fit] |
| CCNC(=O)c1c(O)c2ccccc2[nH]c1=O | active: 6.51 µM |
| Cc1ccc(C)c(N(CC(=O)Nc2ccc(-c3nc4ccc(C)cc4s3)cc2)S(C)(=O)=O)c1 | inconclusive [activator, full curve, poor fit] |
| O=C(Cc1ccc([N+](=O)[O-])cc1)Nc1ccc2c(c1)C(=O)NC2=O | inconclusive [activator, partial curve, poor fit] |
| COc1cc(OC)cc(C(=O)NCC(=O)NCCN2C(=O)S/C(=C\c3ccc4c(c3)OCO4)C2=O)c1 | inactive |
| CCN(Cc1cccc(OC)c1)CC1CCCN(CCc2cccc(OC)c2)C1 (centres undefined) | inconclusive [activator, partial curve] |
| CC1CCN(C(=O)CCN2C(=O)/C(=C/c3cccs3)SC2=S)CC1 | active: 23.1 µM |
| CCOC(=O)c1ccc(-c2ccc(C(=O)Nc3cccnc3)o2)cc1 | inconclusive [activator, single point] |
| COC(=O)c1sc(N2C(=O)C(O)=C(C(=O)c3ccc(C)o3)C2c2ccc([N+](=O)[O-])cc2)nc1C (centres undefined) | inactive |
| CCN(CC)CCn1c(NC(=O)c2ccccc2O)nc2ccccc21 | inactive |
| Nc1ccc(-c2ncc(-c3ccccc3)o2)cc1 | inactive |
| C=CCc1c(C)nc(-c2ccccc2)nc1Nc1ccc(O)cc1 | inconclusive [activator, single point] |
| NNc1nc2c(F)cc(F)cc2s1 | inconclusive [activator, partial curve, poor fit] |
| Cc1ccc(NC(=O)CCc2c(C)nn(-c3ccc(N4CCOCC4)nn3)c2C)cc1 | inconclusive [activator, partial curve, poor fit] |
| Cc1cc(C)n2nc(SCCCC(=O)c3ccc(F)cc3)nc2n1 | inactive |
| CC12CCC(=O)N1C(C(=O)Nc1ccccc1F)CS2 (centres undefined) | inactive |
| Cc1ccc(C(=O)NC(=S)N2CC(C)OC(C)C2)cc1[N+](=O)[O-] (centres undefined) | inactive |
| NC(=O)COc1ccc(/C=C2\C(=O)ON=C2c2ccccc2)cc1 | inconclusive [activator, single point] |
| Cn1c(SCc2ccccc2Cl)nc2ccccc21 | inconclusive [activator, partial curve, poor fit] |
| C=CC[C@H](CC(=O)N(CCO)Cc1ccccc1)C(=O)NC[C@@H](OC(=O)[C@@H](CC=C)Cc1ccc(F)cc1)c1ccccc1 | inconclusive [activator, partial curve, poor fit] |

| SMILES | Potency |
| --- | --- |
| CCN(CC)c1ccc(C(=O)NC(=S)N2CCN(Cc3ccc4c(c3)OCO4)CC2)cc1 | inconclusive [activator, single point] |
| CCOC(=O)Cc1csc(NC(=S)NC(=O)CC(C)C)n1 | inactive |
| Cn1nnnc1Sc1ncnc2scc(-c3ccc(C(F)(F)F)cc3)c12 | active: 2.06 µM |
| O=C(OCc1ccccc1)c1ccc(O)cc1 | inactive |
| CCCCCCC1CCC(c2nc(-c3ccncc3)no2)CC1 (centres undefined) | inconclusive [activator, single point] |
| Fc1ccccc1/C=N/N1CCN(Cc2ccccc2Cl)CC1 | inconclusive [activator, single point] |
| CCOc1ccc(S(=O)(=O)N2c3ccccc3CC2C)cc1 (centres undefined) | inconclusive [activator, partial curve, poor fit] |
| COc1ccc(Cl)cc1Nc1nc(NCCO)nc(N2CCCC2)n1 | inactive |
| CCOc1ccc(C(=O)Nc2ccc(-c3cc4ccccc4oc3=O)c(C)c2)cc1[N+](=O)[O-] | inconclusive [activator, single point] |
| CCOC(=O)C1CCN(Cc2nc3ccccc3c(=O)n2-c2ccc(OCC)cc2)CC1 | inconclusive [activator, full curve, poor fit] |
| CC(=O)c1ccc(NC(=O)CSc2nc(N)c3cc4c(nc3n2)CCCC4)cc1 | inconclusive [activator, single point] |
| COc1cc(OC)cc(C(=O)NCC(=O)OCC(=O)c2cc(C)n(Cc3ccco3)c2C)c1 | inconclusive [activator, single point] |
| CN1CCC(=NNC(=O)c2cn(-c3ccccc3)nc2-c2ccccc2)CC1 | inconclusive [activator, single point] |
| CC(C)CN(C(=O)CCC(=O)OCc1ccc(Cl)cc1Cl)c1c(N)n(CC(C)C)c(=O)[nH]c1=O | inactive |
| Cc1ccc(S(=O)(=O)c2ccc(NN)cc2)cc1 | inconclusive [activator, single point] |
| Cc1cc(=O)oc2cc(NC(=O)C3COc4ccccc4O3)ccc12 (centres undefined) | inconclusive [activator, single point] |
| CC(C)CN(C(=O)c1ccc(S(=O)(=O)N2CCOCC2)cc1)C1CCS(=O)(=O)C1 (centres undefined) | inactive |
| Cc1nnc(SCCn2c(N3CC(C)CC(C)C3)nc3c2c(=O)n(C)c(=O)n3C)s1 (centres undefined) | inactive |
| O=C(CCl)Nc1ncc(S(=O)(=O)c2ccc([N+](=O)[O-])cc2)s1 | inconclusive [activator, single point] |
| CN1C2CCC1/C(=C\c1ccccc1)C(=O)/C2=C\c1ccccc1 | inconclusive [activator, single point] |
| COc1cccc(N=NC2C(=O)N(C(N)=S)N=C2C)c1 (centres undefined) | inconclusive [activator, single point] |
| CCOc1nc(Nc2ccc(OC)cc2)nc(OCC)n1 | inactive |

Source: PubChem BioAssay AID624296 (National Center for Advancing Translational Sciences (NCATS), 2012)
